# Measured values from PMC6919601, “Identification of Plasmodium dipeptidyl aminopeptidase allosteric inhibitors by high throughput screening” (PLoS ONE, 2019).
# Out of some 110,000 compounds screened, about 230 (0.21%) showed an effect of 50% or more. This is one part of the list.
# Molecular target: DPAP1 (Plasmodium falciparum, UniProt Q8IIJ9)
# Assay: primary screen, percent inhibition; read by cleavage of a fluorogenic dipeptide substrate; higher = more effect of the substance
# Set-up: species or system P. falciparum D10 trophozoite lysates; single well
# 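Further: 30 min substrate incubation versus DMSO and 10 µM JCP410 controls.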
# Sequence of DPAP1 (Q8IIJ9 whole entry, looked up): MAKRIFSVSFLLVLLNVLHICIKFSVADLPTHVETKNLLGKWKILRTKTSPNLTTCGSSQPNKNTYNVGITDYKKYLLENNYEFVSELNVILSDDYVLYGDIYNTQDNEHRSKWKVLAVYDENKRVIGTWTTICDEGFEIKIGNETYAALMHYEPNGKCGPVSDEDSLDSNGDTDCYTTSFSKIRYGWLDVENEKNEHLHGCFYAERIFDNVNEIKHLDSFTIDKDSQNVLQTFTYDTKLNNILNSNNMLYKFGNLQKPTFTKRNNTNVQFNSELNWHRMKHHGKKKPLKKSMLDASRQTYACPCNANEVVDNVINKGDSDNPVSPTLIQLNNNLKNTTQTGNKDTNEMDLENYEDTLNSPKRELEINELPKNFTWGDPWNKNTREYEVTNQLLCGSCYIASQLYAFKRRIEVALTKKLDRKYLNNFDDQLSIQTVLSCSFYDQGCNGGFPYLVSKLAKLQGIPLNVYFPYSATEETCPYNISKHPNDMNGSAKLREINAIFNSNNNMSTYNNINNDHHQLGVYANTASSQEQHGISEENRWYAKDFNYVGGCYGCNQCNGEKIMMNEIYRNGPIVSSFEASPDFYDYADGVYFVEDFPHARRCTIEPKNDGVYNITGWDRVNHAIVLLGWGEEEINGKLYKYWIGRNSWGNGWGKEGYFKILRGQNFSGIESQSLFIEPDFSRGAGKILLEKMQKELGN
row,SMILES,% Inhibition @ 10 uM [%]
1,CCOc1ccc2c(c1)OC1(C)CC2/C(=C(\C)O)C(=O)N1 (stereo not shown),9.62
2,Cc1ccc2c(c1)C1(Nc3ccccc3C(=O)N1CCc1ccccc1)C(=O)N2 (stereo not shown),1.49
3,CCOC(=O)c1c(C)oc2cc(Br)c(OCc3ccccc3)cc12,1.37
4,O=c1c2nccnc2nc(SCc2ccccc2Cl)n1Cc1ccccc1,1.39
5,C=CCNC(=O)C1CC=CCC1C(=O)Nc1cccc([N+](=O)[O-])c1 (stereo not shown),-0.0217
6,COc1ccc(CN2CCN(Cc3ccc(C(F)(F)F)cc3)CC2)c(OC)c1OC,0.214
7,CN1C(c2ccccc2)CC(O)(C#Cc2ccccc2)CC1c1ccccc1 (stereo not shown),2.05
8,CC(C)c1nc2ccccc2n1C(=O)c1ccccc1C(=O)O,1.42
9,Cc1ccc(-c2csc(NC(=O)C(F)(F)F)n2)c(C)c1,-4.69
10,CN1CCN(C(=O)c2ccc3nc(-c4ccc(F)cc4)c(-c4ccc(F)cc4)nc3c2)CC1,-3.26
11,c1ccc(-c2nc3c(c(-c4ccccc4)n2)CCCC3)cc1,3.54
12,CCOc1cc(/C=C2/C(=N)N3OC(C)=CC3=NC2=O)ccc1O,0.317
13,CCN(CC)CCCNS(=O)(=O)c1cc(-c2onc(C)c2C)ccc1OC,0.359
14,CCOC(=O)c1cnc2ccccc2c1NCCCN1CCOCC1,-4.7
15,Cn1c(CSCc2ccccc2)c(C#N)c2ccccc21,-1.68
16,O=C(O)c1ccc(NC(=O)c2ccc(C(=O)Nc3ccc(C(=O)O)cc3)cc2)cc1,3.32
17,COc1ccc(NC(=O)Cn2nc(C(F)F)cc2C)cc1,5.04
18,CC1=C(c2ccc(C)c(C)c2)S(=O)(=O)N(Cc2ccc(C(=O)NCc3cccs3)cc2)C1=O,-1.6
19,Cc1cccc(C(=O)N(Cc2nc(-c3ccc(Cl)cc3)no2)C(C)C)c1,-0.958
20,COc1ccc(NC(=O)COc2ccccc2C(C)C)c(OC)c1,-0.446
21,O=C(c1ccc2c(Cl)c3c(nc2c1)CCCC3)N1CCC(N2CCCCC2)CC1,-6.89
22,O=C(COc1ccc(Br)cc1)Nc1ccc(CN2CCOCC2)cc1,-2.83
23,CCCCC1=NN(C(=O)c2ccccc2O)C(O)(C(F)(F)F)C1 (stereo not shown),1.82
24,COC(=O)C1=C(C)NC(=O)CC1c1ccc(F)c(Br)c1 (stereo not shown),-1.17
25,O=c1[nH]c(=O)n(CCc2ccccc2)c2c1C(C(F)(F)F)(C(F)(F)F)NC(Cc1ccccc1)=N2,3.87

row,SMILES,% Inhibition @ 10 uM [%]
1,CN(C)CCNC(=O)CCCc1cn(Cc2ccccc2Cl)c2ccccc12,-0.326
2,COc1cccc2c1NC(c1cccc3ccccc13)C1CC=CC21 (stereo not shown),-6.7
3,O=C(NCCCn1ccnc1)c1cc2nc(-c3cccs3)cc(C(F)(F)Cl)n2n1,0.231
4,C=CCOc1ccccc1/C=c1\sc2nc(-c3cc(OC)c(OC)c(OC)c3)nn2c1=O,0.561
5,CN(C)CCCNC(=O)c1c(O)nc2c(c1O)CCCC2,4.35
6,O=C(NCc1ccc(Cl)c(Cl)c1)c1cccnc1,-1.36
7,OC1=C2C(=Nc3ccccc3NC2c2ccsc2)CC(c2ccccc2)C1 (stereo not shown),4.75
8,Cc1c(Cc2ccccc2)sc(NC(=O)c2cccs2)c1C(N)=O,20.9
9,O=C(NCCCCc1ccccc1)c1ccc(F)cc1,-4.87
10,Cc1ccccc1C(=O)Nc1ccc(O)cc1,-3.43
11,O=C(O)C1CC=CCC1C(=O)Nc1nc(-c2ccccc2Cl)cs1 (stereo not shown),-0.865
12,CCN(C1CCCCC1)S(=O)(=O)c1ccc(OC)cc1,-3.44
13,CC(C)(C)C(=O)Nc1c2c(nn1-c1cccc(Cl)c1)CS(=O)(=O)C2,-3.02
14,CC1CCN(C(=O)c2ccc(N3C(=O)c4ccccc4C3=O)cc2)CC1,-5.26
15,CN1CCN(c2ccc(NC(=O)c3cc4ccccc4o3)cc2)CC1,-4.36
16,CC(C)Cn1c(CN2C(=O)c3ccccc3C2=O)nc2ccccc2c1=O,-0.865
17,Cc1ccc(Cn2c(=O)c3ccccc3n3c(CCC(=O)NCCCOC(C)C)nnc23)cc1,5.68
18,CCN(CC)CCCNC(=O)c1sc2nc(-c3ccc(F)cc3)cn2c1C,3.19
19,CC1=C(C(=O)Nc2ccccc2)C(c2ccncc2)C(C#N)=C(SCC(N)=O)N1 (stereo not shown),-4.91
20,CCC(Cc1ccccc1)NC(=O)CS(=O)(=O)Cc1nc(-c2cccc(OC)c2)oc1C (stereo not shown),-0.138
21,CCOC(=O)c1c(C)oc2cc(CN(C)C)c(O)cc12,3.18
22,CC1=CSC2=NC(=O)/C(=C\c3cccn3-c3ccc(Cl)c(Cl)c3)C(=N)N12,-7.16
23,CCNC(=O)c1c(N)sc2c1CCCCC2,6.47
24,Cc1nc2cc(-c3ccc(Cl)cc3)nn2c(C)c1CCC(=O)NCc1ccco1,6.1
